Paper PMC10984862
Positions count from the first letter of the chain named. These are yes or no findings as the source states them, for the method shown. For some of these results: Binding seen in cells or lysates may run through a third protein. Some binding calls cover weakened binding; strength is not graded here. Tags and fused reporters may be left off the sequences shown. Each block holds one molecule with its values, some of them ahead of it.

Protein sequences, listed by entry. Tags and fused reporters are not part of them. Residues count along the entry.
UniProt Q8LPS5, residues 275-572: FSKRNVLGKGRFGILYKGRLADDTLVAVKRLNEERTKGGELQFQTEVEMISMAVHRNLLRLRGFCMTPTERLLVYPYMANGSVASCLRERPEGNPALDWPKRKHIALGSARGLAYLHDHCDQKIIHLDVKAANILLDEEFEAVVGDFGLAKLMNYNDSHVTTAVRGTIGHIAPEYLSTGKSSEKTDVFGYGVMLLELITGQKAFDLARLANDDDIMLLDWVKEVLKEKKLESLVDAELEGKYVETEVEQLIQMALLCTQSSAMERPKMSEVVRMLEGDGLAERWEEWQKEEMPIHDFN
UniProt Q39026: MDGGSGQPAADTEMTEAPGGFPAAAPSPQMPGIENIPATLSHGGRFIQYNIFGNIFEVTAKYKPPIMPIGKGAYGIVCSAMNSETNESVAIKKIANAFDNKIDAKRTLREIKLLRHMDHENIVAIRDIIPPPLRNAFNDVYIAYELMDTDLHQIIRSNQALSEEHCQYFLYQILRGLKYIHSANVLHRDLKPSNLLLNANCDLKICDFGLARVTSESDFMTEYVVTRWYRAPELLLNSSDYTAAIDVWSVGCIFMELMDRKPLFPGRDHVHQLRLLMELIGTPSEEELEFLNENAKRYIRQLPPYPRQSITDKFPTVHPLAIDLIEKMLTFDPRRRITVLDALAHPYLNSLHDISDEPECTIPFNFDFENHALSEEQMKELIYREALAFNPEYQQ
UniProt Q9FL28, residues 870-1155: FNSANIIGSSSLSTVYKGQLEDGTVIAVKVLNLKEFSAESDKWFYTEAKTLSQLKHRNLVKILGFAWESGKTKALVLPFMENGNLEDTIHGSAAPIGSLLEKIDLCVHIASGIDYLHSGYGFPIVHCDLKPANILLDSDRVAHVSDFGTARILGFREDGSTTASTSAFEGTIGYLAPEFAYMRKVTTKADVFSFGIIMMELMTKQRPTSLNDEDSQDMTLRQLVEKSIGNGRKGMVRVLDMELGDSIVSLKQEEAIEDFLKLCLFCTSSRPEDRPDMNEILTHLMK

Legend:
BD-PP2C15 (Arabidopsis) = target: T1, BD-PP2C15 (Arabidopsis) (UniProt Q9M9C6); assay: two-hybrid; yeast two-hybrid in S. cerevisiae AH109; BD-PP2C15 against AD fusions; growth on SD-LWH or SD-LWHA plates, X-Gal staining, 28°C
T1 sequence: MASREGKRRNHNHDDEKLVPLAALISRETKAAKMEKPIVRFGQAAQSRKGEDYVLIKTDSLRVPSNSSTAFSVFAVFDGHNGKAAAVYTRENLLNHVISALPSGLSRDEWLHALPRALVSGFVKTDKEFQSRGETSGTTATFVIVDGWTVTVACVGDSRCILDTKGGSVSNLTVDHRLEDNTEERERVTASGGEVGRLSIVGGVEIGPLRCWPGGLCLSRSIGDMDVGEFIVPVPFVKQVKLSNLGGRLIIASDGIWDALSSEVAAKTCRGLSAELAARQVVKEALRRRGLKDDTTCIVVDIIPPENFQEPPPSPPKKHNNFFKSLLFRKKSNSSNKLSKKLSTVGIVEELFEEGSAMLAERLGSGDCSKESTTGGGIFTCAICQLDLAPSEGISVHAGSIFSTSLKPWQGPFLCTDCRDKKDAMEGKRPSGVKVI

[1] = target: T2, BAK1 KD (luciferase complementation construct) (Arabidopsis) (UniProt Q94F62); assay: split reporter; firefly luciferase complementation assay (LCA) in N. benthamiana leaves
T2 sequence: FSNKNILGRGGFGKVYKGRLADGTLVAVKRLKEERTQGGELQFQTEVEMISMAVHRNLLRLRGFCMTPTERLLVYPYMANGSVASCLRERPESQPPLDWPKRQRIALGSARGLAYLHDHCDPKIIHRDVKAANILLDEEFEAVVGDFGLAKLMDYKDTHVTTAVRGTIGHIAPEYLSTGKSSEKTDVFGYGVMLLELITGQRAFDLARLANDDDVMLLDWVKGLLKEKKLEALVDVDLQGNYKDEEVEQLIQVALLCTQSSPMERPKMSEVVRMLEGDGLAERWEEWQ

binding (BD-PP2C15 (Arabidopsis)): no binding
B1: SERK1 KD (domain or fragment, UniProt Q94AG2 302-589)
chain: FSNKNILGRGGFGKVYKGRLADGTLVAVKRLKEERTPGGELQFQTEVEMISMAVHRNLLRLRGFCMTPTERLLVYPYMANGSVASCLRERPPSQPPLDWPTRKRIALGSARGLSYLHDHCDPKIIHRDVKAANILLDEEFEAVVGDFGLAKLMDYKDTHVTTAVRGTIGHIAPEYLSTGKSSEKTDVFGYGIMLLELITGQRAFDLARLANDDDVMLLDWVKGLLKEKKLEMLVDPDLQTNYEERELEQVIQVALLCTQGSPMERPKMSEVVRMLEGDGLAEKWDEWQ

binding (BD-PP2C15 (Arabidopsis)): no binding
B2: SERK4 KD (domain or fragment, UniProt Q9SKG5 294-591)
chain: FSNKNVLGRGGFGKVYKGRLADGNLVAVKRLKEERTKGGELQFQTEVEMISMAVHRNLLRLRGFCMTPTERLLVYPYMANGSVASCLRERPEGNPALDWPKRKHIALGSARGLAYLHDHCDQKIIHRDVKAANILLDEEFEAVVGDFGLAKLMNYNDSHVTTAVRGTIGHIAPEYLSTGKSSEKTDVFGYGVMLLELITGQKAFDLARLANDDDIMLLDWVKEVLKEKKLESLVDAELEGKYVETEVEQLIQMALLCTQSSAMERPKMSEVVRMLEGDGLAERWEEWQKEEMPIHDFN

binding (BD-PP2C15 (Arabidopsis)): no binding
B3: SERK5 KD (domain or fragment, UniProt Q8LPS5 275-572)
chain: B2 chain with N3K, K4R, R9K, G11R, K14I, V15L, G23D, N24T, K32N, R127L

binding (BD-PP2C15 (Arabidopsis)): no binding
B7: SERK2 KD (domain or fragment, UniProt Q9XIC7 305-592)
chain: FSNKNILGRGGFGKVYKGRLADGTLVAVKRLKEERTPGGELQFQTEVEMISMAVHRNLLRLRGFCMTPTERLLVYPYMANGSVASCLRERPPSQLPLAWSIRQQIALGSARGLSYLHDHCDPKIIHRDVKAANILLDEEFEAVVGDFGLARLMDYKDTHVTTAVRGTIGHIAPEYLSTGKSSEKTDVFGYGIMLLELITGQRAFDLARLANDDDVMLLDWVKGLLKEKKLEMLVDPDLQSNYTEAEVEQLIQVALLCTQSSPMERPKMSEVVRMLEGDGLAEKWDEWQ

binding [1]: binds
B8: PP2C15 (luciferase complementation construct) (enzyme, UniProt Q9M9C6 1-436)
chain: T1 sequence

The remaining lines, values behind:

Molecule: MAPK6 (from UniProt Q39026 1-395) (enzyme)
binding (BD-PP2C15 (Arabidopsis)): no binding

Molecule: FLS2 KD (from UniProt Q9FL28 870-1155) (domain or fragment)
binding (BD-PP2C15 (Arabidopsis)): no binding

B4: IOS1 KD (domain or fragment, UniProt Q9C8I6 586-858)
chain: NNFERVLGRGGFGVVYYGVLNNEPVAVKMLTESTALGYKQFKAEVELLLRVHHKDLTCLVGYCEEGDKMSLIYEFMANGDLKEHLSGKRGPSILTWEGRLRIAAESAQGLEYLHNGCKPQIVHRDIKTTNILLNEKFQAKLADFGLSRSFPLGTETHVSTIVAGTPGYLDPEYYRTNWLTEKSDVFSFGVVLLELVTNQPVIDMKREKSHIAEWVGLMLSRGDINSIVDPKLQGDFDPNTIWKVVETAMTCLNPSSSRRPTMTQVVMDLKECL
binding (BD-PP2C15 (Arabidopsis)): no binding

B5: MAPK3 (enzyme, UniProt Q39023 1-370)
chain: MNTGGGQYTDFPAVETHGGQFISYDIFGSLFEITSKYRPPIIPIGRGAYGIVCSVLDTETNELVAMKKIANAFDNHMDAKRTLREIKLLRHLDHENIIAIRDVVPPPLRRQFSDVYISTELMDTDLHQIIRSNQSLSEEHCQYFLYQLLRGLKYIHSANIIHRDLKPSNLLLNANCDLKICDFGLARPTSENDFMTEYVVTRWYRAPELLLNSSDYTAAIDVWSVGCIFMELMNRKPLFPGKDHVHQMRLLTELLGTPTESDLGFTHNEDAKRYIRQLPNFPRQPLAKLFSHVNPMAIDLVDRMLTFDPNRRITVEQALNHQYLAKLHDPNDEPICQKPFSFEFEQQPLDEEQIKEMIYQEAIALNPTYG
binding (BD-PP2C15 (Arabidopsis)): no binding

B6: AD-BAK1 KD (domain or fragment, UniProt Q94F62 289-576)
chain: T2 sequence
binding (BD-PP2C15 (Arabidopsis)): binds
